Experimental data published in article PMC4336329 (PLoS ONE, 2015).
The campaign covered roughly 310,000 compounds. About 2,200 (0.71%) showed an effect of 50% or more. The effect is printed as a negative number. The list shows a part of the results.

The compounds below were run against human ether-à-go-go-related gene (hERG) potassium channel (human, UniProt Q12809) (assay: primary screen, population patch clamp on CHO cells stably expressing hERG).
Sequence of human ether-à-go-go-related gene (hERG) potassium channel (Q12809 whole entry, looked up): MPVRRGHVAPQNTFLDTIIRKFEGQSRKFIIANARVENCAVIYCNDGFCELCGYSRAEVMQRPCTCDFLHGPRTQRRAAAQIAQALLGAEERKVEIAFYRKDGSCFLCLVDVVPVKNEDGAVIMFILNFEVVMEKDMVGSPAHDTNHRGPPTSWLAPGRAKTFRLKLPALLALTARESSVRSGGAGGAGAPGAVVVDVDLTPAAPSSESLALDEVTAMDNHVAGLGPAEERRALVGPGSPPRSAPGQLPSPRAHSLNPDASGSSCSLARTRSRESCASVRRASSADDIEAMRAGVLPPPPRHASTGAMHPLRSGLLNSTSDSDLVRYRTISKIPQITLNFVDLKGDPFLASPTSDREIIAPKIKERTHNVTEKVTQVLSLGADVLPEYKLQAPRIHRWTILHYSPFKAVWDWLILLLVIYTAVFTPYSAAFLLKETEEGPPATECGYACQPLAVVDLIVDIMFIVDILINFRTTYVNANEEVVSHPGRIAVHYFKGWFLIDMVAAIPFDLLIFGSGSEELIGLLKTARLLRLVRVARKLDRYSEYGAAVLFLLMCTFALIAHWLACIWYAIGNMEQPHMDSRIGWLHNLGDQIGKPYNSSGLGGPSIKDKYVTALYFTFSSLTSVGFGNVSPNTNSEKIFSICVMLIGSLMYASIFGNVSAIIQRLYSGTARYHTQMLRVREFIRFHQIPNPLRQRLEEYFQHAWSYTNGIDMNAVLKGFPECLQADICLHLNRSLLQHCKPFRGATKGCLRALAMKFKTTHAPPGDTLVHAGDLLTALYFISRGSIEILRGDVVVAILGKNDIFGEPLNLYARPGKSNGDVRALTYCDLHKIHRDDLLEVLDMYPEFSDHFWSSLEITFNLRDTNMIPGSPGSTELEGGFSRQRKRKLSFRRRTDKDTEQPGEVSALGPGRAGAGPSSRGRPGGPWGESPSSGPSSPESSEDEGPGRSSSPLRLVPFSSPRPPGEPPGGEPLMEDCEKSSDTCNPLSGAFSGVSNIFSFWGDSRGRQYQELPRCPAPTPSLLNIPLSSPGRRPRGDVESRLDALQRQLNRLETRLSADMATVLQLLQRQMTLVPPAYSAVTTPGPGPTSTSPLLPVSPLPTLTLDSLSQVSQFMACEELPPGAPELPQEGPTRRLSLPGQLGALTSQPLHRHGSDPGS

Structure (SMILES) | hERG current change (%, negative = inhibition) at 1uM [%]
Cc1cc(CSc2ccccc2)ccc1NC(=O)c1ccc(Br)cc1 | 7.18
COc1ccccc1CNC(=O)C(=O)Nc1ccc(C(=O)N2CCC(C)CC2)cc1 | 12.4
Cc1onc(-c2c(Cl)cccc2Cl)c1COC(=O)c1ccc([N+](=O)[O-])cc1 | 17.5
COc1ccc(-c2nc(CS(=O)CC(=O)NCCc3ccc(C)cc3)c(C)o2)cc1OC (centres unmarked) | 10.7
O=C(CCC(=O)N1CCOCC1)Nc1ccc(Cl)c(Cl)c1 | 6.92
CCOc1ccc(NC(=S)N(CCCN2CCCC2)Cc2cccn2Cc2ccc(Cl)cc2)cc1 | -2.47
O=C(Nn1cnnc1)c1ccc([N+](=O)[O-])cc1 | 9.26
CCOc1ccc(CN(C)C(=O)CNC(=O)C2CCCCC2)cc1 | 16.6
CC(C)Oc1ccccc1C1Nc2ccccc2C(=O)N1c1ccc2c(c1)OCCO2 (centres unmarked) | 4.74
Cc1ccc(C(C)NC(=O)COC(=O)C2=COCCO2)cc1C (centres unmarked) | 8.35
CC1Cc2ccccc2N1C(=O)CSc1nnnn1C(C)C (centres unmarked) | 12.9
COc1cc(/C=N/NC(=O)c2cc3ccccc3[nH]2)ccc1O | 13
Cc1cc(C)nc(SCCn2c(N3CC(C)OC(C)C3)nc3c2c(=O)n(C)c(=O)n3C)n1 (centres unmarked) | 10.6
Cc1cc(N(CC(=O)NC(C)C)S(C)(=O)=O)ccc1Br | 18.2
COc1ccc(NC(=O)Cc2coc3ccc4ccccc4c23)cc1S(=O)(=O)N1CCOCC1 | -0.271
CC(C)C(=O)NC(=S)/C=C1/N(C)c2ccccc2C1(C)C | 5.4
O=C(NCc1cccnc1)C(=O)Nc1nc2ccccc2s1 | 4.08
COc1ccc(OCCCSc2ncccn2)cc1 | 5.98
O=C(O)c1cccc(-c2nc3ccccc3[nH]2)c1 | 7.55
COc1ccc(CNC(=O)c2cccnc2Sc2ccc(Cl)cc2)cc1 | 2.07
CCOc1ccc(-c2nc(N)ncc2Oc2ccccc2Br)c(O)c1 | 11.9
O=C(N/N=C/c1cccn1-c1ccccc1)c1ccncc1 | 12.1
CCn1c(CN2c3ccccc3Sc3ccccc32)n[nH]c1=S | 16.1

Structure (SMILES) | hERG current change (%, negative = inhibition) at 1uM [%]
CC1CN(C(=O)c2ccc(Br)c(S(=O)(=O)N3CCOCC3)c2)CC(C)O1 (centres unmarked) | 11.3
CC(C)C1Nc2ccc(C(=O)NC3CCCCC3)cc2NC1=O (centres unmarked) | 15.3
COc1cccc(NC(=O)C(Cc2ccccc2)NC(=O)C2CCC(C)CC2)c1 (centres unmarked) | 9.31
O=C(/C=C/c1ccco1)N1CCN(c2ccccc2)CC1 | 12.2
CCc1ccccc1Cn1c(=O)oc2cccnc21 | 12.9
Cc1ccc2c(C)c(C(=O)NCc3ccc(S(N)(=O)=O)cc3)oc2c1 | 11.8
Nn1c(SCc2cccc3ccccc23)nnc1-c1ccco1 | 5.7
CCCCN(N=Nc1nonc1OC)c1nonc1OC | 9.5
S=c1[nH]nc(Cc2ccccc2)n1-c1ccccc1 | 20.3
CCOC(=O)COc1ccc(S(=O)(=O)NCCC2=CCCCC2)cc1 | 13.7
COc1ccc(CN(C)C(=O)CCCNC(=O)c2ccc(Cl)cc2)cc1 | -2.32
COc1ccc(C(=O)Nc2ccc([N+](=O)[O-])cn2)c(OC)c1 | 8.86
Fc1ccc(-c2ccnc(=S)[nH]2)cc1 | 19.9
O=[n+]1c2c(n([O-])c3cc(F)ccc31)CCCC2 | 3.96
Cc1cc(C)n2nc(SCC(=O)NC(=O)NCc3ccco3)nc2n1 | -4.02
C#CCOCCOCCOCCNc1nc(N2CCN(C(=O)CCCCCCCCCCNC(=O)[C@H](CCCCN)n3cc(CCCC(=O)O)nn3)CC2)nc(N2CCN(C(=O)CCCCCCCCCCNC(=O)[C@@H]([C@H](C)O)n3cc(C)nn3)CC2)n1 | 10.6
Nc1nc2ccccc2n1/N=C/c1ccc(Br)cc1 | 16.1
NC(=O)[C@@H]1CCCNc2c(I)cc([N+](=O)[O-])cc2C(=O)N[C@@H](Cc2ccccc2)C(=O)N[C@@H](Cc2cnc[nH]2)C(=O)N1 | 8.88
COCC(C)NC(=O)c1ccccc1OC(C)=O (centres unmarked) | 2.1
CCn1ccnc1CN(C)Cc1cn[nH]c1-c1ccc(F)cc1F | 10.5
COc1ccccc1C(=O)NCCNC(=O)c1ccc(C)nc1 | 16
O=C(/C=C/c1ccccc1)N1CCCN(C(=O)/C=C/c2ccccc2)CC1 | -44
O=C(c1ccc2c(c1)OCO2)N1CCN=C1SCc1cccnc1 | 7.38

Structure (SMILES) | hERG current change (%, negative = inhibition) at 1uM [%]
COc1ccc(Cl)cc1NC(=S)Nc1ccccc1C | 7.35
CCCN(CC(=O)Nc1ccccc1C)CC(=O)Nc1ccc(Br)cc1F | 11.1
COC(=O)c1ccccc1NC(=O)C1CCCN(S(C)(=O)=O)C1 (centres unmarked) | 8.69
c1ccc(CN2CCC3(CC2)Nc2ccccc2S3)cc1 | 13.6
CNc1ccc(Br)cc1C(O)c1ccccc1 (centres unmarked) | 1.36
CCOc1ccc(N(CC(=O)NC2CCCC2)S(=O)(=O)c2c(C)noc2C)cc1 | 9.83
CCOC(=O)c1nnc2cc(-c3ccccc3)nn2c1C | 10.8
O=C(CSC1=NCCS1)Nc1ccnc2ccccc12 | 7.28
CC1CCN(Cc2nnnn2CCCC(=O)NCC(C)(C)N2CCOCC2)CC1 | 10.4
COc1cc(C=O)ccc1OCCOCCOc1ccccc1Cl | 6.08
CNC(=O)c1ccsc1NC(=O)c1ccccc1 | 1.95
Nc1nc(NCc2ccco2)nc(N2CCOCC2)c1[N+](=O)[O-] | 13.5
Cc1ccnc(NS(=O)(=O)c2ccc(NC(=O)c3oc4ccccc4c3C)cc2)n1 | 17.9
COc1ccc(Oc2c(Cl)cnn(-c3ccc(C)cc3)c2=O)cc1 | 15.1
Cc1ccc2[nH]c(=O)c(N3CCOCC3)c(-c3ccccc3)c2c1 | 10.9
Cc1ccnc(SCC(=O)N2CCN(C(c3ccccc3)c3ccccc3)CC2)n1 | 21.9
COc1ccc2nc3cc(Cl)ccc3c(C#N)c2c1 | 3.14
Cc1ccc(NC(=O)CN(C)C(=O)COc2c(Cl)cc(Cl)c3ccc(C)nc23)cc1 | -2.15
COc1ccccc1NS(=O)(=O)c1cc(NC(=O)CNC(=O)c2cc(C)cc(C)c2)ccc1C | 5.7
CCCCc1cc(=O)oc2cc(OCC(=O)N[C@@H](Cc3ccccc3)C(=O)O)ccc12 | 10.9
COc1ccc(CN2C(=O)NC3(CCCCCC3)C2=O)cc1F | 7.71
Cc1ccc(C(=O)OCC(=O)Nc2ccc3c(c2)OCO3)o1 | 15.8
CCN(CC)S(=O)(=O)c1cc(NC(=O)c2cc([N+](=O)[O-])ccc2N2CCOCC2)ccc1C | 10.4

Structure (SMILES) | hERG current change (%, negative = inhibition) at 1uM [%]
O=C(O)CSc1nc2ccccc2c(=O)[nH]1 | 5.95
CCC(C)(C)NC(=O)C(c1cccc(OC)c1)N(C(=O)CNC(=O)c1cccs1)c1cccnc1 (centres unmarked) | 12.1
Cc1ccc(CN2CC(C(=O)O)CC2=O)cc1 (centres unmarked) | 0.902
c1ccc(N2CCN(Cc3cn4ccccc4n3)CC2)cc1 | 11.8
Cc1ccc(-n2ncc3c(SCC(=O)NNC(=O)C(C)C)ncnc32)cc1 | 24.1
c1ccc(C2=NCCCN2)cc1 | 12.1
COc1ccc(CCNC2CC(C)N(C)CC2C)cc1OC.Cl (centres unmarked) | 8.57
CCOC(=O)c1sc(C)c2c1NC(C)(c1cccc3ccccc13)NC2=O (centres unmarked) | 12.7
CC(C)(C)c1ccc(S(=O)(=O)N2CCCCC2C(=O)NCc2ccccn2)cc1 (centres unmarked) | -9.99
CCOC(=O)N1CCN(C(=O)c2ccc(CN(c3ccccc3)S(C)(=O)=O)cc2)CC1 | 13.2
O=C(C[n+]1ccc(C(=O)N/N=C/c2ccc(Br)cc2)cc1)c1ccccc1.[Br-] | -32.5
CCCCN(C)CCNC(=O)c1cc(-c2cccnc2)nc2ccc(S(=O)(=O)N3CCC(C)CC3)cc12 | 2.78
CN(C)c1ccc(Nc2cc(Cl)ncn2)cc1 | 7.5
O=c1cc(CO)oc(CN2CCN(c3ccccc3F)CC2)c1O | 9.28
COC(=O)c1c(NC(=O)CCc2ccc(C)o2)sc(C)c1C | 10.4
O=CN1CCCN(C(=O)CC2C(=O)NCCN2Cc2cccc(Oc3ccccc3)c2)CC1 (centres unmarked) | -14.6
CCOc1ccc(NC(=O)CN(C)CC(=O)Nc2ccc(Br)cc2F)cc1OCC | -1.74
COc1ccc(CC(NC(C)=O)C(=O)N2CCN(C(=O)N(C(C)C)C(C)C)CC2)cc1 (centres unmarked) | 4.41
Cn1c2ccccc2c(=O)c2c(=O)n(Cc3ccco3)c(-c3ccc(F)cc3)nc21 | 6.3
Oc1ccccc1C1N=C(c2ccccc2)NC(c2ccccc2)=N1 | 10.8
